In PubChem BioAssay AID686978 (National Center for Advancing Translational Sciences (NCATS), 2013):
Hit rate of the full screen: of about 420,000 compounds, about 64,000 (15%) were called active. The shares of active, inactive and inconclusive entries below differ from those in the screen. Calls come from the whole dose curve; as a rule, active = well fitted inhibition curve with a large enough effect; inconclusive = small, poorly fitted or top-dose-only effect; inactive = flat fitted curve, though single readings scatter. No potency is given beside an inconclusive call; the fits are too rough.

assay: qHTS for Inhibitors of human tyrosyl-DNA phosphodiesterase 1 (TDP1): qHTS in cells in absence of CPT; conditions: DT40 Tdp1-/- hTDP1 cells, no CPT, ATP luminescence, 48 h; series mostly up to 46.2 µM; note: nearly all actives have a fitted effect of over 55% in size
How it was run: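 Chicken DT40 Tdp1-/- cells stably complemented with human TDP1 were seeded at 400 cells/well with DMSO in place of 20 nM camptothecin. After compound pinning, cells grew at least 48 hr at 37 °C; viability read by CellTiter-Glo luminescence.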
Potency is the fitted concentration of half-maximal effect; tags give direction and shape of the fitted curve.

Row | Compound | Potency
1 | CN(C)CC1CCCCC1OC(=O)/C=C/c1ccc(Cl)cc1Cl (stereo unspecified) | inconclusive [inhibitor, single point]
2 | c1ccc2c3c([nH]c2c1)C(C1CCCCC1)N(Cc1ncc[nH]1)CC3 (stereo unspecified) | inconclusive [inhibitor, single point]
3 | COC(=O)CN1C(=O)C(O)(CC(=O)c2ccc(C)cc2)c2cc(Br)ccc21 (stereo unspecified) | inactive
4 | CCOCCc1nn2c(=O)cc(COC(=O)C(CC)c3ccccc3)nc2s1 (stereo unspecified) | inconclusive [inhibitor, single point]
5 | Oc1ccc(Nc2nc(-c3ccccc3)nc3ccccc23)cc1 | inconclusive [inhibitor, single point]
6 | O=S(=O)(c1ccc(Cl)cc1)N1CCN(Cc2ccncc2)CC1 | inconclusive [inhibitor, partial curve]
7 | Cc1nnc(N2CCN(c3ccccc3F)CC2)c2c1nnn2Cc1ccccc1 | active: 16.4 µM
8 | Cc1cc(C)c(NC(=O)CSc2nc3ccccc3c(=O)n2CCCN2CCOCC2)c(C)c1 | inconclusive [inhibitor, single point]
9 | COc1ccc(/C=c2\s/c(=C/C(=O)c3ccc(C)cc3)[nH]c2=O)c(OC)c1 | inconclusive [inhibitor, single point]
10 | Cn1nc(Oc2ncc(C(F)(F)F)cc2Cl)cc1C(F)(F)F | inconclusive [inhibitor, single point]
11 | Cc1ccccc1NC(=O)CSc1nc(N)c2c3c(sc2n1)CSC(C)(C)C3 | inconclusive [inhibitor, single point]
12 | COc1ccc(N2CCc3c(C)nc4c(OC)cc(OC)cc4c32)c(OC)c1 | active: 5.17 µM
13 | Cc1cccc(N2CCN(C(=O)c3oc4ccc(Br)cc4c3C)CC2)c1C | inconclusive [inhibitor, single point]
14 | COc1ccc(C2(CNC(=O)c3cc(OC)c(OC)c(OC)c3)CCCC2)cc1OC | inconclusive [inhibitor, single point]
15 | COc1ccc(OC)c(CCNC(=O)CCc2cn(C)c3ccccc23)c1 | inconclusive [inhibitor, partial curve]
16 | COc1cccc(C(=O)Nc2cc(Cl)c(O)c(Cl)c2)c1 | inactive
17 | Cc1ccc(SC/C(O)=C(\C#N)c2nc3ccccc3n2C)cc1 | inconclusive [inhibitor, single point]
18 | O=C1CC(c2ccco2)CC(O)=C1C=Nc1cc(Cl)cc(Cl)c1 (stereo unspecified) | inconclusive [inhibitor, single point]
19 | O=C(c1sc2ccccc2c1Cl)N1CCN(CCc2ccccn2)CC1 | inconclusive [inhibitor, partial curve, poor fit]
20 | c1ccc(-c2cc(NCCN3CCCCC3)c3ccccc3n2)cc1 | active: 16.4 µM
21 | COCCN(C(=O)CCC(=O)Nc1nccs1)C(C(=O)NC(C)(C)C)c1ccc(Cl)cc1 (stereo unspecified) | inactive
22 | Clc1ccc(-n2cc(-c3ccc(Br)cc3)[n+]3c2CCCCC3)cc1 | active: 6.51 µM
23 | O=C(NCc1ccccc1)N1CCC(Cc2ccccc2)CC1 | inconclusive [inhibitor, partial curve]

Row | Compound | Potency
24 | O=C(Nc1nnc([C@H]2C[C@H](O)[C@@H](CO)O2)s1)c1ccc(Oc2ccccc2)cc1 | inconclusive [inhibitor, single point]
25 | Cc1c(C2(O)CCCCC2)[nH]c2cnccc12 | inactive
26 | CCCOc1cccc(/C=N/NC(=O)c2csc(C)c2C)c1 | inactive
27 | O=C(COC(=O)CCNS(=O)(=O)c1cccc(C(F)(F)F)c1)NC(=O)NC1CCCCC1 | inactive
28 | Cc1ccc(N(C)C(=O)C2CCCN(c3ncnc4c3nc3n4CCCCC3)C2)cc1C (stereo unspecified) | active: 9.2 µM
29 | COc1ccc(NC(=O)CSc2nc3c([nH]c4ccccc43)c(=O)n2C)c(OC)c1 | inactive
30 | CSc1ccccc1NC(=O)c1cc(C2CC2)on1 | inconclusive [inhibitor, single point]
31 | CN1CCN(c2ccc(S(=O)(=O)Nc3ccccc3)cc2[N+](=O)[O-])CC1 | active: 9.2 µM
32 | CCCCc1nn2c(=O)cc(COC(=O)c3ccc(NC(=O)C4CCCCC4)cc3)nc2s1 | inconclusive [inhibitor, full curve]
33 | S=c1nccc(-c2ccc3c(c2)CCO3)[nH]1 | inconclusive [inhibitor, single point]
34 | CC(=O)c1cccc(S(=O)(=O)N2CCC(c3nc4ccccc4[nH]3)CC2)c1 | inactive
35 | CC12CCC(C/C1=N/NC(=O)Nc1ccccc1)C2(C)C (stereo unspecified) | inconclusive [inhibitor, partial curve]
36 | O=C(CCN1CCN(c2ccccn2)CC1)Nc1ccc(F)cc1 | inactive
37 | O=C(CSc1nnc(-c2ccccc2)n1-c1ccc(Cl)cc1)NNC(=S)Nc1ccccc1 | inconclusive [inhibitor, partial curve, poor fit]
38 | CCCc1cc2c(-c3ccccc3)cc(=O)oc2cc1OCc1ccc(C(=O)O)o1 | inactive
39 | Cc1cccc(N2CCN(C3(c4ccccc4)C(=O)c4ccccc4C3=O)CC2C)c1 (stereo unspecified) | inconclusive [inhibitor, single point]
40 | Cc1ccc(NC(=O)Nc2ccc(F)c(Cl)c2)cc1 | active: 23.1 µM
41 | O=c1[nH]c(CN2CCN(C/C=C/c3ccccc3)CC2)nc2cc(Cl)ccc12 | active: 20.6 µM
42 | Cc1ccc(C)c(NC(=S)N/N=C2/CCCCc3ccccc32)c1 | inconclusive [inhibitor, single point]
43 | CCN(Cc1ccccc1)C(c1ccc(Cl)cc1)c1nnnn1C(C)(C)C (stereo unspecified) | inconclusive [inhibitor, partial curve, poor fit]
44 | COc1ccc(CN(C)C(=O)c2cccc(NS(=O)(=O)c3ccccc3)c2)c(OC)c1 | inactive
45 | O=C(NCCCN1CCCCCC1)C(c1ccccc1)C1CCCCC1 (stereo unspecified) | active: 16.4 µM
46 | Cc1ccc(-c2cc(C(=O)NCC(c3ccccc3)N(C)C)c3ccccc3n2)o1 (stereo unspecified) | inconclusive [inhibitor, partial curve]
